# Laboratory results as given in article PMC4336329 (PLoS ONE, 2015).
# Out of some 310,000 compounds screened, about 14,000 (4.5%) showed an effect of 50% or more. The effect is printed as a negative number. The list shows a part of the results.
# Target: human ether-à-go-go-related gene (hERG) potassium channel (human, UniProt Q12809)
# Test: primary screen, population patch clamp on CHO cells stably expressing hERG
# 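Further: peak tail current of the secondary pulse compared with the same well before compound.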
# Sequence of human ether-à-go-go-related gene (hERG) potassium channel (Q12809 whole entry, looked up): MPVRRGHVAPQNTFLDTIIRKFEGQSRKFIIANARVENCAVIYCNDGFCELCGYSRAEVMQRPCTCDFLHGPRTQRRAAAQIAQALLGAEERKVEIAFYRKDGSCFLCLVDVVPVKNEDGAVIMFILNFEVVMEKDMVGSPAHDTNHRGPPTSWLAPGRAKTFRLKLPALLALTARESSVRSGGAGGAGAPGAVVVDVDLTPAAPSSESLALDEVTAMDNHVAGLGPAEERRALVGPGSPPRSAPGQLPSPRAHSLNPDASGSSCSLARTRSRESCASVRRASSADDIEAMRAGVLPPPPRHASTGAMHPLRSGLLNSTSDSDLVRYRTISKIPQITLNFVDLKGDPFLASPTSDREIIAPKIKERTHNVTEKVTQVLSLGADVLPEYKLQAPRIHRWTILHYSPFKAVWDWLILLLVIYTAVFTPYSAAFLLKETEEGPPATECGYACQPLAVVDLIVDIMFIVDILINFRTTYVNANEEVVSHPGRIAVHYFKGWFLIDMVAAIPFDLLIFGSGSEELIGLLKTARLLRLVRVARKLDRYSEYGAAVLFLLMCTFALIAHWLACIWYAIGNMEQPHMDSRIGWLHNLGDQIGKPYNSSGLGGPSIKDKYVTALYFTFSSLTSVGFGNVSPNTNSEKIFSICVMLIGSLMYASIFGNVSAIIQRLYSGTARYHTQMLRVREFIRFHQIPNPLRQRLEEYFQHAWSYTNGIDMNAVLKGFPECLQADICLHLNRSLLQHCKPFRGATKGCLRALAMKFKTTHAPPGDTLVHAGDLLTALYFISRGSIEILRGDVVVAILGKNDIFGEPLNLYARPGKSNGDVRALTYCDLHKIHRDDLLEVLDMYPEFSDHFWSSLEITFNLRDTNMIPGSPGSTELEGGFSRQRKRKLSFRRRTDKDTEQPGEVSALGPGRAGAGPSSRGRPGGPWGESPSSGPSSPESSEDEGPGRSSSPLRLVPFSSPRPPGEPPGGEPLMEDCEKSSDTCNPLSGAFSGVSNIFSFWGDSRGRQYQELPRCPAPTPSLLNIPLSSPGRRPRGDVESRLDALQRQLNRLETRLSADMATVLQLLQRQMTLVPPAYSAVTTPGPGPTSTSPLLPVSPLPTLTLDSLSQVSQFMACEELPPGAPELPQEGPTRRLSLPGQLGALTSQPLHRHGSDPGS
row,SMILES,"hERG current change (%, negative = inhibition) at 10uM"
1,CN(C(=O)c1cc(COc2ccc(F)c(F)c2)on1)C1CCOC1 (stereo not drawn),-13.1%
2,COc1ccc(Cc2noc(CN(C)CCN3CCc4ccccc4C3)n2)cc1OC,-35%
3,c1ccc(CSCc2cn3ccsc3n2)cc1,-4.45%
4,CCOc1cc(S(=O)(=O)N(CC)CC)ccc1Cl,-0.543%
5,O=c1[nH]c(CSc2nc(-c3ccc(F)cc3)cs2)nc2ccccc12,4.73%
6,O=C(CN1CCCC1)Nc1ccc(F)c(Cl)c1.O=C(O)C(=O)O,11.5%
7,CSc1nc(-c2ccco2)nn1S(C)(=O)=O,16.2%
8,CC(=O)Nc1ccc(N2CCOCC2)c(C(=O)Nc2cccc(C)c2)c1,-25.8%
9,COc1ccccc1NS(=O)(=O)c1cc(NC(=O)Nc2ccccc2)ccc1N1CCCCC1,-33.9%
10,CS(=O)(=O)N1CCN(c2ccccc2NC(=O)c2ccc(-c3ccc(Cl)cc3Cl)o2)CC1,-4.2%
11,COc1ccc(OC)c(S(=O)(=O)Oc2ccc(N)c3ccccc23)c1,7.83%
12,Cc1c(C(C)(C)C)sc(=NC(=O)c2ccccc2O)n1C,17.1%
13,COc1ccc(-c2nnc(NC(=O)CS(=O)(=O)c3ccc(Cl)cc3)o2)c(OC)c1,19.1%
14,Cc1cc(OCC(C)C)ccc1/C(O)=C1/C(=O)C(=O)N(Cc2cccnc2)C1c1ccncc1 (stereo not drawn),12.2%
15,COC(=O)CCC(=O)Nc1cccc2c(NC(=O)CCC(=O)OC)cccc12,25.9%
16,CC1=NN(c2ccccc2)C(=O)C1C(=O)c1ccccc1 (stereo not drawn),4.95%
17,Cc1ccc(C(=O)NC2CCCCC2)cc1,2.02%
18,CCOC(=O)CSc1nc(C)c(C(C)=O)cc1C(N)=O,37.9%
19,CCCC(C(=O)NCCc1ccc(S(N)(=O)=O)cc1)c1ccccc1 (stereo not drawn),6.6%
20,O=C1[C@H]2[C@@H](c3ccc(F)cc3)N3C(=O)N(c4cccc(F)c4)C(=O)[C@@]3(Cc3ccc(Cl)cc3)[C@H]2C(=O)N1C1CCCCC1,7.12%
21,CCn1c(CC(=O)Nc2ccccc2)nnc1SCC(=O)Nc1nncs1,22.7%
22,Cc1nc(Cl)sc1C(=O)Nc1ccccc1,17.2%

row,SMILES,"hERG current change (%, negative = inhibition) at 10uM"
1,COc1ccc(/C=N/Nc2nc(C)cc(=O)[nH]2)cc1OC,14.7%
2,Cc1cc(C)c2c(N)c(C(=O)N3CCN(c4ncccn4)CC3)sc2n1,-2.32%
3,CCOc1ccc(NC(=O)CN2CCN(CC(=O)c3ccc(OC)c(OC)c3)CC2)cc1,-84.4%
4,CC1CN(C(=S)NC(=O)c2ccco2)CC(C)O1 (stereo not drawn),22.3%
5,COC(=O)Cc1[nH]n(-c2nc3ccccc3s2)c(=O)c1C(C)=O,21.6%
6,Cc1ccc(NC(=O)CN(C)CC(=O)Nc2ccc(N3CCOCC3)cc2)c(C)c1,-18.4%
7,CCOC(=O)C1(CCOc2ccccc2)CCN(C(=O)c2cncs2)CC1,-70.7%
8,CC(=O)SC(C)CC(=O)Nc1ccccc1 (stereo not drawn),7.33%
9,COc1ccc(N2CCN(C(CNC(=O)C(=O)NCCCn3ccnc3)c3cccnc3)CC2)cc1 (stereo not drawn),-7.21%
10,CC(C)N1CCC(N2CCN(C/C=C/c3ccc(F)cc3)CC2CCO)CC1 (stereo not drawn),-6.87%
11,CC(C)OC(=O)c1c2nc3ccccc3nc2n2c1[nH]c(=O)c1ccccc12,5.58%
12,O=c1cc(Nc2ccc3c(c2)OCCO3)[nH]c(=O)n1-c1ccc(Cl)cc1,-0.327%
13,O=C(c1ccc(F)cc1)C1CCN(Cc2ccc(F)cc2)CC1,-47.7%
14,Cc1cc(C(=O)CSc2n[nH]c(N)n2)c(C)n1-c1ccccc1,-13.8%
15,Clc1ccc2nc(N3CCCCC3)[nH]c2c1,-26.9%
16,Cc1nc(SCC(=O)Nc2ccccc2C(F)(F)F)c2c(=O)n(C)c(=O)n(C)c2n1,-2.58%
17,C/C(=N\NC(=O)c1cc(-c2ccco2)nc2ccccc12)c1cccnc1,-5.33%
18,c1cc(OCCCN2CCCCC2)ccc1CN1CCCCC1,14.1%
19,CC(=O)c1c(C)[nH]c(C(=O)OCc2nc3ccsc3c(=O)[nH]2)c1C,-13.6%
20,COc1ccc(N2CCN(C(=O)COC(=O)/C=C/c3ccc(C(F)(F)F)cc3)CC2)cc1,-7.24%
21,COc1ccc(NC(=O)CC2Sc3ncnn3C2=O)cc1 (stereo not drawn),13.8%
22,CCOc1ccc(NC(=O)CSc2nc3ccccc3nc2N2CCCC2)cc1,-39.3%

row,SMILES,"hERG current change (%, negative = inhibition) at 10uM"
1,Cc1ccc(-c2nnc(N(C)C(=O)c3cccnc3)s2)cc1,-17.4%
2,CC(c1ccccc1)N1CCn2c(nc3cc(NC(=O)NC4CCCCC4)ccc32)C1 (stereo not drawn),-39.2%
3,O=C(O)C(Cc1c[nH]c2ccccc12)N1CCS(=O)(=O)CC1 (stereo not drawn),16.3%
4,Cc1c(Cc2ccccc2)c(=O)oc2cc(OCc3nn[nH]n3)ccc12,-1.62%
5,O=c1c2oc3ccccc3c2ncn1Cc1ccc(F)cc1,18.9%
6,CC1CCCN(S(=O)(=O)c2ccc(C(=O)Nc3nnc(-c4ccco4)o3)cc2)C1 (stereo not drawn),-9.05%
7,O=C(Nc1ccccc1)c1cc(S(=O)(=O)N2CCCCC2)ccc1N1CCOCC1,1.08%
8,O=C(Nc1ccccc1)/C(=C/c1ccc(O)cc1)NC(=O)c1ccco1,-3.7%
9,Cc1ccc(NC(=O)CSc2nnc(-c3ccccc3Br)o2)cc1C,-7.67%
10,O.c1ccc(-c2cc(-c3nc4ccccc4[nH]3)c3ccccc3n2)cc1,14.4%
11,O=C(Nc1ccc(F)cc1)c1ccc(CSc2ccc(Cl)cc2)o1,7.38%
12,COc1ccc(C(=O)NNC(=O)CSc2nnc(-c3ccc(O)cc3)n2C)cc1,5.16%
13,COc1ccc(CCNC(=O)c2cc(-c3ccco3)nc3ccccc23)cc1,2.98%
14,Cn1c(=O)n(C)c2cc(S(=O)(=O)NCc3ccco3)ccc21,7.61%
15,COC(=O)C1C(c2ccccc2)C=CC(c2ccccc2)C1C(=O)O (stereo not drawn),10.2%
16,CC(O)c1nc2ccccc2n1CCCc1ccccc1 (stereo not drawn),-25.4%
17,CCN(c1ccc(OCC(=O)OCC(=O)c2c(N)n(C)c(=O)n(C)c2=O)cc1)S(=O)(=O)c1ccccc1,-6.28%
18,COc1ccccc1NC(=S)N(Cc1ccco1)Cc1cc2cc(C)cc(C)c2[nH]c1=O,-9.67%
19,c1ccc(CN2CCN(Cc3ccc4c(c3)OCCO4)CC2)cc1,-10.6%
20,Cc1cccc(Nc2nc(N)nc(CN3CCN(c4ccccc4)CC3)n2)c1,-54.5%
21,CC(C)(C)N=C1SCC(C)(/C=N/O)S1 (stereo not drawn),9.63%
22,CCC(=NCc1ccco1)c1c(O)n(C)c(=O)n(C)c1=O,19.9%

row,SMILES,"hERG current change (%, negative = inhibition) at 10uM"
1,O=C(COC(=O)c1ccccc1C(=O)c1ccc(Cl)c([N+](=O)[O-])c1)NC1CC1,-3.12%
2,Cc1ccc(OCC(=O)Nc2cc(NC(=O)COc3ccc(C)cc3)cc(C(=O)O)c2)cc1,19.8%
3,CN(C)c1ccc(C(C(=O)NC2CCCC2)N(C(=O)c2csnn2)C2CC2)cc1 (stereo not drawn),0.514%
4,CCc1c(O)nc(SCc2ccc(F)cc2)[nH]c1=O,17.9%
5,CC(=O)C1=C(C)NC(=O)NC1c1ccc(OC2CCCC2)cc1 (stereo not drawn),-3.14%
6,CCCCn1c(N)c(N(CCOC)C(=O)C2CCN(C(=O)c3ccc(Cl)cc3)CC2)c(=O)[nH]c1=O,11.5%
7,C=CCn1c(C)cc(C(=O)CSc2nnc(-c3cccc(S(=O)(=O)N(CC)CC)c3)o2)c1C,1.82%
8,CCOC(=O)C1(S(=O)(=O)c2ccc(Cl)cc2)CCN(Cc2ccc(C)cc2)CC1,-14.1%
9,COCC1CCN(C(=O)C2CCN(c3nc(-c4ccccc4)nc4c3CCC4)CC2)C1 (stereo not drawn),-76.5%
10,CCCOc1cc2c(C#N)c(N3CCCC3)nc(N)c2c(N)n1,22%
11,CN(CC(=O)Nc1ccc2c(c1)OCCO2)S(=O)(=O)c1cccc2cccnc12,1.37%
12,O=C(CN(Cc1ccccc1)S(=O)(=O)c1ccccc1)N/N=C/c1ccccc1C(=O)O,1.91%
13,O=C(OCC(=O)c1ccc[nH]1)C1=COCCO1,5.01%
14,CCC(CC)c1nnc(NC(=O)C2CC(=O)N(CCc3ccc(OC)c(OC)c3)C2)s1 (stereo not drawn),-0.537%
15,Cc1ccc(NC(=O)Nc2cc(S(C)(=O)=O)ccc2Cl)cc1,-2.55%
16,COc1ccc(CC(=O)Nc2ccc(N3CCCC3)c(C)c2)cc1,5.59%
17,CC(C)NC(=O)c1ccc(OC2CSC2)cc1,-8.57%
18,O=C(NCCO)c1cc2cc(Cl)cc(Cl)c2oc1=O,-3.65%
19,C/C(=N\NC(=O)c1nn(C)cc1Br)c1cccc(NC(=O)c2ccncc2)c1,-1.29%
20,CCc1cccc2c(C(=O)COC(=O)c3nccnc3N)c[nH]c12,-5.69%
21,Cc1c(C(=O)OC2CCCC2)[nH]c2c1C(=O)CC(c1ccco1)C2 (stereo not drawn),8.95%
